In ChEMBL document CHEMBL4888484, “Replenishing the malaria drug discovery pipeline: Screening and hit evaluation of the MMV Hit Generation Library 1 (HGL1) against asexual blood stage Plasmodium falciparum ,using a nano luciferase reporter read-out” (2022):
The whole screen tested about 150,000 compounds, of which about 540 (0.36%) showed an effect of 50% or more. Some of the results follow.

What follows are compounds tested on Plasmodium falciparum (assay: Primary screen in NF54 nanoGlo assay, in single point, at 2uM, 72h; a lower Z score goes with more inhibition). Conditions: timepoint 72 hour.
Assay type: functional, Erythrocyte

SMILES	% Inhibition	Z score
O=C(NC(C1CC1)C1CC1)c1ccncc1	4%	-0.8
O=C1CCc2cc(NC(=O)C(=O)NCCc3ccc4c(c3)OCO4)ccc2N1	-11%	2.09
OCCN(CCO)Cc1cc(F)ccc1F	-12%	2.35
Cc1cn(-c2c(F)cccc2F)nc1C(=O)N1CC[C@](C)(O)C1	-9%	0.93
Cc1nccc(NC(=O)C2C3CCC(O3)C2C(F)(F)F)n1 (centres undefined)	2%	-0.26
O=C(Cc1cccnc1)N[C@H]1CCC[C@H]1Cc1ccc(F)cc1	-3%	0.53
N#CC1(c2ccccn2)CCCN(CC2CCC3(CCCC3)O2)C1 (centres undefined)	-3%	0.63
FC(F)c1[nH]nc2c1CN(c1nc(CC3CC3)ns1)CC2	-6%	1.03
CONC(=O)COc1ccc(Cl)cc1	6%	-0.86
CCC(=O)NCc1ccc(-c2noc(CCC3CCCC3)n2)s1	10%	-1.19
COC(=O)c1c(NC(=O)c2ccccc2)c2cc(NCc3cc(OC)ccc3F)cnc2n1C[C@H]1CCCO1	0%	0
Cc1cccn2cc(COc3ccccc3C(=O)NCc3ccccn3)nc12	-12%	1.61
O=S(=O)(c1ccc2c(c1)OCCCO2)N1CC(c2nc3ccccc3s2)C1	4%	-0.9
O=C(c1cc(C2CC2)n[nH]1)N1C[C@@H]2CC[C@H]1CN(Cc1cccnc1)C2	-9%	0.89
C[C@H]1Cc2ccccc2N1Cc1ccoc1C(=O)NCCC1(O)CCC1	-8%	1.35
COC(=O)C1C(O)CCCN1C(=O)C1CCC(NC(=O)CC2CCCC2)CC1 (centres undefined)	12%	-1.38
Cc1cc(C)c2[nH]c(C(=O)N[C@H]3C[C@H]4OCC[C@@H]34)c(C)c2c1	-12%	1.53
O=C(CCc1ccccc1)N1CCOC2CCCCC21 (centres undefined)	-4%	0.71
CCc1cc(N[C@H](c2nc(C3CC3)no2)C(C)C)ncn1	7%	-0.99
CCN1CC2(CCN(Cc3noc(C)n3)CC2)C[C@@H](c2ccccc2)C1=O	-7%	0.9
CC(C)CNC(=O)C[C@H]1COCCN1C(=O)c1cnc2cccnn12	14%	-2.05

SMILES	% Inhibition	Z score
Cc1ccc(N(C)C(=O)[C@H]2[C@@H]3C[C@@H]4[C@H]2C(=O)O[C@@H]4C3)cc1	-9%	1.04
O=C(NC1CCC(n2cccn2)CC1)[C@@H]1CC=CCC1 (some centres undefined)	1%	-0.09
Cc1nn(C)c(C)c1CNCc1cc2ccc(F)cc2n(CCN2CCCCC2)c1=O	-5%	1
CCCCCc1ccc(C(=O)N(CCOC)Cc2ccc(OC)c(OS(=O)(=O)c3ccc(F)cc3)c2)cc1	-12%	1.28
O=C(N[C@@H]1CCCC[C@H]1NC(=O)C1CCCN(C(=O)c2ccc(Cl)cc2Cl)C1)c1ccc(F)cc1 (some centres undefined)	10%	-1.71
CCC[C@H]1C=CCN1C(=O)c1cccc(CN)c1	-2%	0.32
Cn1cncc1CNC1CCC(Cc2ccccc2)C1 (centres undefined)	3%	-0.45
Cc1cccc(-n2nc(C)c(CCC(=O)NCc3ccccc3)c2Oc2ccccc2C)c1	-25%	3.6
CS(=O)(=O)N[C@@H](Cc1ccccc1)C1CC1	-1%	0.08
Cc1cc(C(=O)N2CCN(C(=O)c3scc(C)c3Cl)[C@H](C)C2)n[nH]1	5%	-0.61
Cn1cnn(CCC(=O)N[C@H]2CC2(C)C)c1=O	-8%	1.13
COc1cc(OC)cc(C(=O)Nc2ccc3c(c2)C(=O)Nc2ccccc2O3)c1	29%	-3.28
O=C(Nc1cccnc1)[C@@H]1CCCCN1C(=O)OCc1ccccc1	0%	0.02
CCCN(CCC)c1nc2ccccc2c2nc(C)nn12	-16%	1.58
Cc1cnc(-n2cnnc2)c(-c2cc[nH]n2)c1	-4%	0.65
CNC(=O)c1cccc(NC(=O)N[C@H]2C[C@@H](OC(C)C)C2)n1	4%	-0.69
CCOc1ccc(C(=O)N[C@@H]2COCC[C@@H]2OCc2ccccn2)o1	-3%	0.57
CCc1noc(C)c1C(=O)Nc1cccc(-c2csc(C)n2)c1	-1%	0.11
COc1cc(OC)nc(-c2ccc(C(=O)N3CCCCCCC3)cc2)n1	-7%	1.33
CCn1c(=O)c(-c2ccc(C(=O)NC3CCCCC3)cc2)nc2ccccc21	-21%	1.98
Cc1cccc2c(=O)[nH]c(Cn3cc(C(F)(F)F)cc(Cl)c3=O)nc12	-15%	2.29
